Test results from PubChem BioAssay AID504832 (National Center for Advancing Translational Sciences (NCATS), 2011).
In all, about 310,000 compounds went through this assay and about 18,000 (5.8%) were called active. This list was built around the results that the source calls inconclusive (neither active nor inactive); the mix of calls is not that of the screen. The call rests on the fitted dose curve; in most records, active means well fitted inhibition curve with a large enough effect; inconclusive means small, poorly fitted or top-dose-only effect, or another doubt; inactive means no such curve, though single readings can be large or run the other way. Potencies of inconclusive entries are left out as doubtful fits.

assay: Primary qHTS for delayed death inhibitors of the malarial parasite plastid, 48 hour incubation; conditions: P. falciparum luciferase growth in erythrocytes; series mostly up to 28.7 µM; activity change, negative = inhibition: at the top concentration
How it was run: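 First compound was added to culture medium, then infected red cells at 0.1% parasitemia and 2% hematocrit (final). After incubation at 37 C under 5% CO2, luciferase detection reagent was dispensed and light output recorded.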
On the % scale 0 is the no-effect control and ±100 the full control effect; potency means the concentration at half of the fitted maximal effect; tags describe the fitted curve by direction and shape.

Structure (SMILES) | Potency | activity change, negative = inhibition
Cc1ccc(NS(=O)(=O)c2cc(C(=O)NCCSC3CCCCC3)ccc2C)cc1 | inconclusive [inhibitor, single point] | –
COc1ccc(-c2cc(C(F)F)n3ncc(C(=O)NCC4CCCO4)c3n2)cc1 (stereo not given) | inconclusive [inhibitor, single point] | –
Cc1occc1C(=O)NC(C)C12CC3CC(CC(C3)C1)C2 (stereo not given) | inconclusive [inhibitor, partial curve, poor fit] | –
O=C(NCCCn1ccnc1)C(=O)NCC(c1ccco1)N1CCN(c2ccccc2)CC1 (stereo not given) | inconclusive [inhibitor, full curve, poor fit] | –
CCc1cccc(CC)c1N(COC)C(=O)Cn1c(CO)nc2ccccc21 | inconclusive [inhibitor, partial curve, poor fit] | –
CC(C)=CC[N+]1(C)CCCCC1 | inconclusive [inhibitor, full curve] | –
CC1(C)CC(NC(=S)NC(=O)c2cc(Br)ccc2Cl)CC(C)(C)N1 | inconclusive [inhibitor, single point] | –
Cc1noc(C)c1COC(=O)c1cccc(S(=O)(=O)N2CCOCC2)c1 | inconclusive [inhibitor, partial curve, poor fit] | –
COc1ccc(NC(=O)C2CCN(C(=O)Nc3ccccc3)CC2)cc1S(=O)(=O)N(C)C | inconclusive [inhibitor, single point] | –
Cc1ccc(Oc2nc(C(F)(F)F)nc3ccccc23)cc1 | – | inactive: -5.04%
Cc1cccc(NC(=O)CSc2nc(C3CC3)nc3ccccc23)c1 | inconclusive [inhibitor, partial curve, poor fit] | –
CCOc1ccc(CCNC(=O)CSCC(=O)Nc2ccc(OC)cc2)cc1OCC | inconclusive [inhibitor, single point] | –
CN(C)C(=O)C1C2NC(=S)N(c3ccc(Cl)cc3)C1(C)Oc1ccc(Cl)cc12 (stereo not given) | inconclusive [inhibitor, single point] | –
COc1ccc(Cl)cc1S(=O)(=O)NC(C)C(=O)NCc1ccncc1 (stereo not given) | – | inactive: 22.2%
c1ccc(CCn2nnnc2C(c2cccnc2)N2CCN(c3nc4ccccc4s3)CC2)cc1 (stereo not given) | active: 13.1 µM | –
CCOC(=O)c1c(C)n(-c2ccc(C)cc2)c2ccc(OCC(O)CNCCCO)cc12 (stereo not given) | inconclusive [inhibitor, partial curve, poor fit] | –
O=C(CCCCCn1c(=O)[nH]c2ccccc2c1=O)NCCc1c[nH]c2ccccc12 | active: 8.28 µM | –
COc1cccc(CNC(=O)CCC(=O)n2ncc3cc(C)ccc32)c1OC | – | inactive: 49.3%
CCc1c(C)nc2c(Br)cccc2c1SCCC#N | inconclusive [inhibitor, partial curve, poor fit] | –
Cc1ccccc1S(=O)(=O)Cc1ccc(C(=O)N2CCN(c3cccc(C)c3C)CC2)o1 | inconclusive [inhibitor, single point] | –
O=C(Nc1ccccc1O)c1ccc(NS(=O)(=O)c2cccc3cccnc23)cc1 | active: 2.33 µM | –
CCOC(=O)Cn1nc(NC(=O)COc2ccc(F)cc2)cc1C | inconclusive [inhibitor, single point] | –
O=C(NCCC1=CCCCC1)c1ccc(F)c(S(=O)(=O)N2CCOCC2)c1 | inconclusive [inhibitor, single point] | –
CSc1nc2ccccc2n1CC(=O)Nc1ccc(C)c(C)c1 | – | inactive: 7.62%

Structure (SMILES) | Potency | activity change, negative = inhibition
COc1ccc(C(=O)C2CCCN(Cc3c(F)ccc(F)c3F)C2)c(OC)c1 (stereo not given) | inconclusive [inhibitor, single point] | –
CCOC(=O)CN(C(=O)CSc1nnc2c(n1)[nH]c1ccccc12)c1ccccc1 | active: 7.38 µM | –
Cc1ccc(C[n+]2cccc(-c3ccccc3)c2)c(C)c1 | active: 0.928 µM | –
O=[N+]([O-])/C=C/c1cn(Cc2ccccc2)c2ccccc12 | inconclusive [inhibitor, full curve, poor fit] | –
CN(CC(=O)Nc1ccc(Cl)c(C(F)(F)F)c1)C(=O)CCNC(=O)c1ccco1 | active: 10.4 µM | –
O=C(c1cc(-c2ccc(Cl)c(Cl)c2)on1)N1CCCC1 | – | inactive: 89.1%
CNC(=O)c1c(NC(=O)c2ccc(S(=O)(=O)N3CCCCC3)cc2)sc2c1CCN(C(C)C)C2 | active: 10.4 µM | –
Cc1cc(C(=O)CSc2nc(N)cc(N)n2)c(C)n1-c1cccc(F)c1 | – | inactive: 11.3%
C(=N\N1CCN(c2ccccn2)CC1)/C1=C(N2CCOCC2)C(=C/c2ccccc2)/CC1 | active: 10.4 µM | –
Cc1ccc(C)c(N2CCN(C(=S)Nc3ccc4nc(N5CCN(C)CC5)cc(C)c4c3)CC2)c1 | active: 10.4 µM | –
C/C=C/C1=CC(=O)C[C@H](c2ccc(OC)c(OC)c2)C1 | inconclusive [inhibitor, single point] | –
CC(C)Cn1nc(C(=O)Nc2cccc(S(=O)(=O)N3CCCC3)c2)c2ccccc2c1=O | active: 11.7 µM | –
CCOC(=O)CC(NC(=O)c1ccco1)c1ccccc1Cl (stereo not given) | – | inactive: -16.2%
O=c1c2ccccc2nc(SCc2cn3ccsc3n2)n1-c1ccccc1F | inconclusive [inhibitor, single point] | –
CCN(Cc1ccc2c(c1)OCCO2)C(=O)CN1C(=O)NC2(CCc3ccccc32)C1=O (stereo not given) | – | inactive: -12.9%
CCCCn1c(SCC(=O)NC2CCS(=O)(=O)C2)nc2cc(S(N)(=O)=O)ccc21 (stereo not given) | inconclusive [inhibitor, full curve, poor fit] | –
COCCCNC(=O)c1c(NC(=O)c2ccccc2Cl)n(Cc2ccccc2)c2nc3ccccc3nc12 | inconclusive [inhibitor, single point] | –
CNC(=O)c1ccc(-c2sc3nc(N4CCOCC4)c4c(c3c2N)CCCC4)o1 | active: 11.7 µM | –
COc1ccc(OCC(=O)N/N=c2\oc3c(OC)cccc3cc2C(N)=O)cc1 | – | inactive: 5.26%
CC(C)(C)c1cc(NC(=O)CCl)n(-c2ccccc2)n1 | inconclusive [inhibitor, single point] | –
c1ccc(N2CCN(c3nnnn3-c3ccccc3)CC2)cc1 | inconclusive [inhibitor, single point] | –
COc1ccccc1[C@@]1(C)ON(c2ccccc2C(F)(F)F)C1=O | active: 1.47 µM | –
Cc1cccc(-c2nnc(SCC(=O)N3c4ccccc4CCc4ccccc43)n2C)c1 | inconclusive [inhibitor, single point] | –
COc1cc(CN(C)CC2CCCN(CCc3ccc(F)cc3)C2)c(Cl)cc1O (stereo not given) | active: 11.7 µM | –

Structure (SMILES) | Potency | activity change, negative = inhibition
Cc1cc(C)c2nc(SC3CCOC3=O)cc(C)c2c1 (stereo not given) | – | inactive: 4.87%
COc1ccc(-n2nc(C(=O)NCC(=O)N3CCC(C)CC3)c3ccccc3c2=O)c(OC)c1 | inconclusive [inhibitor, single point] | –
Fc1ccc(-c2noc(C3CCN(Cc4cccnc4)CC3)n2)cc1 | inconclusive [inhibitor, single point] | –
Cc1nn2c(N3CCCC3)c3c(nc2c1-c1ccccc1)CCC3 | inconclusive [inhibitor, single point] | –
COc1cc2nc(C3CCC3)n(NC(=O)c3ccco3)c(=O)c2cc1OC | inconclusive [inhibitor, single point] | –
CCOc1cc(CNCC(C)C)cc(Cl)c1OCc1ccccc1 | active: 13.1 µM | –
Cc1ccc(Oc2ccccc2NC(=O)CSCC(=O)Nc2cc(C)on2)cc1 | inconclusive [inhibitor, full curve, poor fit] | –
CCC1(CC)NC(=O)N(CC(=O)OCC(=O)c2cc(C)c(C)cc2C)C1=O | inconclusive [inhibitor, single point] | –
Cc1cccc(Oc2ccc(NC(=O)C3=CC=CN4CCS(=O)(=O)N=C34)cc2)c1 | inconclusive [inhibitor, single point] | –
COc1ccc(CCNC(=O)/C=C/c2ccc(OC)c(S(=O)(=O)N3CCOCC3)c2)cc1 | inconclusive [inhibitor, single point] | –
O=C(CCSc1ccccc1)NCCSCc1ccccc1 | – | inactive: 31.6%
Cc1ccccc1N1CCN(C2=NC(=O)/C(=C\c3cccs3)S2)CC1 | inconclusive [inhibitor, single point] | –
COC(=O)c1cc(Br)ccc1NC(=O)Nc1ccccc1 | – | inactive: 30.8%
CC(C)c1ccccc1NC(=O)C1CCCN(C(=O)c2ccc(Cl)cc2)C1 (stereo not given) | inconclusive [inhibitor, single point] | –
Cc1ccc(C)c(S(=O)(=O)N2CCN(C(=O)CN3C(=O)C4CC=CCC4C3=O)CC2)c1 (stereo not given) | – | inactive: -3.78%
COC(=O)C1=C(C)N(C)C(=S)N(C)C1c1cccc(Br)c1 (stereo not given) | inconclusive [inhibitor, partial curve] | –
O=C(NNC(=O)C1CC1)c1cc(Cl)nc2ccccc12 | inconclusive [inhibitor, single point] | –
CN(C)C=Nc1ncc2c3ccccc3n(CCN(C)C)c2c1C#N | inconclusive [inhibitor, single point] | –
Cc1ccc2nc(Cl)c(/C=N/Nc3nc(C)cc(C)n3)c(=O)n2c1 | – | inactive: -2.32%
Cc1ccc(NC(=O)c2ccco2)c(NC(=O)c2ccccc2C)c1 | – | inactive: 35.2%
O=C(c1ccc(OC2CCN(Cc3ccccc3O)CC2)cc1)N1CCCCC1 | inconclusive [inhibitor, partial curve] | –
Cc1ccc(-c2csc(NC(=O)c3ccc(S(=O)(=O)N4CCc5ccccc54)cc3)n2)cc1 | active: 10.4 µM | –
